Measured values from PubChem BioAssay AID652104 (National Center for Advancing Translational Sciences (NCATS), 2013).
About 7,200 (1.8%) of roughly 410,000 compounds were called active. This list was built around the results that the source calls inconclusive (neither active nor inactive); the mix of calls is not that of the screen. Calls follow the shape of the dose curve; as a rule, active = well fitted activation curve with a large enough effect; inconclusive = small, poorly fitted or top-dose-only effect, or another doubt; inactive = no such curve, though single readings can be large or run the other way. Potencies of inconclusive entries are left out as doubtful fits.

Experiment: qHTS of TDP-43 Inhibitors; also: nearly all actives have a fitted effect of over 50% in size; as to growth rescue (activation): % of control where 0% means no effect
Settings: TDP-43 expressing yeast growth rescue, BacTiter-Glo, 24 h; growth rescue (activation): at 46.1 µM (top of the series) unless noted
Summary of the method: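 Galactose-induced TDP-43 yeast, OD600=0.02, compound pinned; 24 hr, 30 deg C; BacTiter-Glo luminescence for growth. Inhibitors of TDP-43 toxicity read as activators.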
Potency is read from the fitted curve at half-maximal effect; tags tell the direction and shape of the fitted curve.

Structure (SMILES) | Potency | growth rescue (activation)
CCCOc1ccc(F)cc1-c1cc(C(=O)NCc2cccc(Cl)c2)[nH]n1 | inactive | 
CC(=N\Nc1ccccc1)/C(=N/O)C(=O)Nc1ccccc1 | inconclusive [activator, full curve] | 
CCc1ccccc1-n1cnc2cc(C(=O)O)ccc21 | inconclusive [activator, partial curve] | 
O=C(COc1ccc2cc(Br)ccc2c1)N1CCOCC1 | inconclusive [activator, partial curve] | 
Cn1ncc2c(Nc3ccc(Cl)cc3)ncnc21 | inconclusive [activator, partial curve] | 
O=c1[nH]c(CCl)nc2cc(-c3ccc(F)cc3)sc12 | inconclusive [activator, single point] | 
O=C(/C=C/c1ccco1)NC1CCCC1 | inconclusive [activator, partial curve] | 
Cc1ccccc1Nc1nnc(-c2ccc(C)c(S(=O)(=O)NCC3CCCO3)c2)c2ccccc12 (stereo not drawn) | inactive | 
CCC(CO)Oc1cc(NCc2ccc(F)cc2)c2ncn(C(C)C)c2c1 (stereo not drawn) |  | inconclusive: 31.1% [activator]
CC(C)CNC(=O)c1ccccc1NC(=O)Nc1ccccc1 | inactive | 
O=C(NCc1ccco1)c1cc(-c2cccnc2)nc2ccc(Cl)cc12 | inconclusive [activator, full curve, poor fit] | 
CSc1ccccc1C(=O)N1CCc2ccccc2C1 | inconclusive [activator, partial curve] | 
Cc1nc2sccn2c(=O)c1S(=O)(=O)Nc1cccc(Cl)c1C | inconclusive [activator, partial curve] | 
CCOc1ccccc1OCCCCCc1c(C)n[nH]c1C | inconclusive [activator, single point] | 
Cn1nnnc1SCCCNCc1cc(Cl)ccc1OCc1ccccc1 |  | inactive: 0% [at 9.22 µM]
COc1ccc(NC(=O)c2cc([N+](=O)[O-])ccc2N2CCCCC2)cc1OC | inconclusive [activator, single point] | 
Clc1ccc(-n2nnnc2-c2cnc3ccc(Cl)cc3c2-c2ccccc2)cc1 | inconclusive [activator, single point] | 
CCc1c(C)sc(NC(=O)C2CC(c3c(F)cccc3Cl)=NO2)c1C#N (stereo not drawn) | active: 20 µM | 
Cc1cc(C(=O)COC(=O)c2cccnc2Cl)c(C)n1C | inconclusive [activator, partial curve] | 
CCn1c(O)c(N=NC(=O)c2cccs2)c2ccccc21 | inconclusive [activator, partial curve] | 
COc1ccc(Cl)cc1-c1cc(C(=O)NCC2CCCCC2)[nH]n1 | inconclusive [activator, single point] | 
Cn1ncc(Br)c1NC(=O)c1cc(Cl)cc(Cl)c1 | inconclusive [activator, single point] | 
Cn1c(=O)c2c(-c3ccccc3)n(-c3ccccc3O)cc2n(C)c1=O | inactive | 

Structure (SMILES) | Potency | growth rescue (activation)
CC1CC(=O)c2c(cc3c(-c4c(O)cc(O)c5c(O)c6c(cc45)OC(C)CC6=O)c(O)cc(O)c3c2O)O1 (stereo not drawn) | active: 35.5 µM | 
CCOc1cc(/C=N/NC(=O)N/N=C/c2ccc(O)c(OCC)c2)ccc1O | inactive | 
CCc1ccc2occ(CC(=O)NCc3ccccc3)c2c1 | active: 11.2 µM | 
CCOc1ccc(C(=O)Nc2ccc(Cl)c(-c3nc4cc(C)cc(C)c4o3)c2)cc1 | inconclusive [activator, single point] | 
Nc1nn2cc(-c3ccc(Br)cc3)nc2c2ccccc12 | inconclusive [activator, partial curve] | 
Cc1ccc2c(C(=O)CCl)c(C)[nH]c2c1 | inconclusive [activator, partial curve] | 
COc1ccc(-c2nc3sc(CCNC(=O)c4ccc(C(C)(C)C)cc4)c(C)n3n2)cc1 | inactive | 
Cc1cc(C)cc(NC(=S)Nc2ccccn2)c1 | inconclusive [activator, single point] | 
CC(=O)c1cn(CCOc2ccccc2C)c2ccccc12 | inconclusive [activator, partial curve] | 
CCc1ccccc1NC(=S)/N=C(\N)Nc1nc(C)c2cc(C)ccc2n1 | inconclusive [activator, single point] | 
COC(=O)c1cccc(NC(=O)C2COc3ccccc3O2)c1 (stereo not drawn) | inconclusive [activator, single point] | 
COc1ccc(-c2csc(C(NC(C)=O)c3cccc(F)c3)n2)cn1 (stereo not drawn) | inactive | 
CCNc1nc(N)c(C(=O)C23CC4CC(CC(C4)C2)C3)s1 | inconclusive [activator, partial curve] | 
Cc1c(Cl)cccc1NS(=O)(=O)c1cccc2nsnc12 | inconclusive [activator, single point] | 
CCc1ccc(NC(=O)C2CCCN2S(=O)(=O)c2cccc3nsnc23)cc1 (stereo not drawn) | inconclusive [activator, partial curve] | 
CCCn1cnc2c(SCc3ccccc3F)nc(N)nc21 | inconclusive [activator, single point] | 
COCCNC(=O)c1ccc(-c2ccc(OC)cc2C)c2ccoc12 | inconclusive [activator, single point] | 
COC(=O)c1ccc(OCC2c3cc(OC)c(OC)cc3CCN2C(=O)Cc2ccc(OC)c(OC)c2)cc1 (stereo not drawn) | inconclusive [activator, single point] | 
Cc1ccccc1N1C(=O)c2cccc3cccc(c23)C1=O | active: 20 µM | 
CC(C)C(=O)N1CCC1(C)C(=O)Nc1ccc(-n2cccc2)cc1 (stereo not drawn) | inconclusive [activator, partial curve, poor fit] | 
COc1ccc(NC(=O)c2ccc3[nH]c(C)cc(=O)c3c2)cc1 |  | inactive: 21.8% [at 9.22 µM]
c1ccc(Nc2ncnc3c2oc2ccccc23)cc1 | inconclusive [activator, partial curve, poor fit] | 
COc1ccccc1N1CCN(C(=O)c2cc3cc(Br)ccc3oc2=O)CC1 | inconclusive [activator, partial curve] | 

Structure (SMILES) | Potency | growth rescue (activation)
COc1ccc(CCNC(=S)Nc2cc(C)cc(C)c2)cc1 | inconclusive [activator, partial curve] | 
CCCN1CCC(C)(C(=O)Nc2ccccc2Oc2ccccc2)C1 (stereo not drawn) | inconclusive [activator, partial curve] | 
CSc1cccc(NC(=O)c2ccc3c(c2)CCCN3S(C)(=O)=O)c1 | inactive | 
Cc1ccc(NC(=O)N2CCc3ccccc32)cc1C | inconclusive [activator, single point] | 
CC(C)CC1(C)N=C(c2ccccc2)C(=S)N1 (stereo not drawn) | inconclusive [activator, single point] | 
Cc1csc2ncnc(N3CCN(C(=S)Nc4ccc(F)cc4F)CC3)c12 | inconclusive [activator, partial curve] | 
COc1ccc(/C=C(/C(=O)Nc2ccccc2C(=O)N2CCCC2)c2ccccc2)cc1 | inconclusive [activator, single point] | 
CCC(=O)Nc1cccc(NC(=S)NC(=O)c2ccccc2Cl)c1 | inconclusive [activator, partial curve] | 
COc1cccc(-c2csc(N3CCN(C(=O)Nc4ccc(F)cc4)CC3)n2)c1 | active: 17.8 µM | 
CC(=O)Nc1cccc(NC(=O)COc2ccc3c(c2)CCC3)c1 | inconclusive [activator, partial curve, poor fit] | 
COc1ccccc1CNC(=O)c1cc(-c2ccccc2C)nn1CC1CC(c2cccnc2)=NO1 (stereo not drawn) | inconclusive [activator, partial curve] | 
Cc1ccc(-n2ncc3c(NCc4ccccc4)ncnc32)cc1C | inconclusive [activator, partial curve] | 
O=C(CCl)N=c1sccn1Cc1cccc2ccccc12 | inconclusive [activator, partial curve, poor fit] | 
Cc1ccc(Cc2c[nH]c(=S)s2)cc1 | active: 11.2 µM | 
COc1ccc(/C=C/C(=O)NC(=S)NNC(=O)c2cc(OC)c(OC)c(OC)c2)cc1 | inconclusive [activator, partial curve] | 
COC(=O)C1CCN(c2csc3ccc(C)cc3c2=O)CC1 | inconclusive [activator, partial curve] | 
CCc1ccc(NC(=O)/C(C#N)=C/c2cn(CC(=O)O)c3ccccc23)cc1 | inconclusive [activator, full curve, poor fit] | 
S=C(NCC1CCCO1)N1CCN(c2cccc(Cl)c2)CC1 (stereo not drawn) | inconclusive [activator, partial curve] | 
CC(=O)c1ccc(OCc2ccc(C(=O)c3ccccc3)cc2)cc1 | inconclusive [activator, partial curve] | 
COc1cccc(C(=O)Nc2cc3c(cc2Cl)OCCCO3)c1 | inconclusive [activator, partial curve] | 
COc1cccc(/C=C2\Oc3cc(OCC(=O)N4CCCC4)ccc3C2=O)c1OC | inconclusive [activator, partial curve] | 
CCC1COCCS(=O)(=O)N1Cc1cccc(Cl)c1 (stereo not drawn) | inconclusive [activator, single point] | 
